# Reference: PMC4336329 (PLoS ONE, 2015)
# The campaign covered roughly 310,000 compounds. About 14,000 (4.5%) showed an effect of 50% or more. The effect is printed as a negative number. Some of the results follow.
# Target: human ether-à-go-go-related gene (hERG) potassium channel (human, UniProt Q12809)
# Assay: primary screen, population patch clamp on CHO cells stably expressing hERG
# 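Note: peak tail current of the secondary pulse compared with the same well before compound.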
# Sequence of human ether-à-go-go-related gene (hERG) potassium channel (Q12809 whole entry, looked up): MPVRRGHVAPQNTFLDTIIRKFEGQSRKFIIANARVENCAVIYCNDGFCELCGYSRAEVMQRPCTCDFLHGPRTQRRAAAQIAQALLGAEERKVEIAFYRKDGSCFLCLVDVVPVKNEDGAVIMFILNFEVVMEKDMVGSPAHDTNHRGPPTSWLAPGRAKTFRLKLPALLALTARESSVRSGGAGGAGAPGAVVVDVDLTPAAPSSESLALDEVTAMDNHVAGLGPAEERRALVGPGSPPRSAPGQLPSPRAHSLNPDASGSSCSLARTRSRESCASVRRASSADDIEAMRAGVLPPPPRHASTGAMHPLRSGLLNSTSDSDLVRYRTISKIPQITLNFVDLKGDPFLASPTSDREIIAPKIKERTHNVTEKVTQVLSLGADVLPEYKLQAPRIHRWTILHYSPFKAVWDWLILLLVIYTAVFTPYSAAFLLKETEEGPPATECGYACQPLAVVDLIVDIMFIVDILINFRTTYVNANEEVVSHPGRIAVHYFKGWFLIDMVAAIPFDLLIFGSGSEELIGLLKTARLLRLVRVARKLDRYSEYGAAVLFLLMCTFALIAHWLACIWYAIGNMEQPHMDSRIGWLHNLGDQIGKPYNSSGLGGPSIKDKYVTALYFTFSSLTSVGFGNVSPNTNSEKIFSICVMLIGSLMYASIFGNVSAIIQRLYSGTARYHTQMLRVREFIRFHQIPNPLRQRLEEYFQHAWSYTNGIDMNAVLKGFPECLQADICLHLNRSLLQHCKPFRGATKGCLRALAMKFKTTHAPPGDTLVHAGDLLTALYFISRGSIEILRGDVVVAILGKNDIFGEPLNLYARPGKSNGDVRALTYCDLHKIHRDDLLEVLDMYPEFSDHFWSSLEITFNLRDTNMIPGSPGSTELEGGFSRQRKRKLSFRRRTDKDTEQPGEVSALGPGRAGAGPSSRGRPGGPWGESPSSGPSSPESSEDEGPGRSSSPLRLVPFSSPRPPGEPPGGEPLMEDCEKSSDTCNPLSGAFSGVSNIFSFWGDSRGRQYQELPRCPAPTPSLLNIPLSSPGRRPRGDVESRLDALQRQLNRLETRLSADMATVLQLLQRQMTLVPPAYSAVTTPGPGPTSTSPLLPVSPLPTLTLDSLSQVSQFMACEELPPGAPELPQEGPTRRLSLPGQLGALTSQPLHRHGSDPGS
row,Structure (SMILES),"hERG current change (%, negative = inhibition) at 10uM"
1,CCCCOC(=O)Cn1c(=O)n(CC(=O)OCCCC)c2ccccc21,-33.9%
2,C/C(CCC(C)C)=N\NC(=S)Nc1cc(S(=O)(=O)N2CCOCC2)ccc1N1CCOCC1,-18.5%
3,O=Cc1cccnc1SCc1ccccc1,6.97%
4,Cc1ccc(NC(=O)NCc2ccc3c(c2)OCO3)c(C)c1,6.35%
5,C=C(C)c1cccc(C(C)(C)NC(=O)Nn2cnnc2)c1,8.95%
6,Cc1ccc(C(=O)Nc2ccc(OCc3ccccc3)cc2)s1,1.58%
7,CCOc1ccc(C(C)NC(=O)Nc2ccc(F)cc2F)cc1 (stereo not shown),-0.408%
8,CCN(CC)CCNC(=O)CNC(=O)c1nn(-c2ccc(OC)cc2)c(=O)c2ccccc12,1.57%
9,COc1cc(NC(=O)c2ccc(COc3ccccc3Br)o2)cc(OC)c1OC,-3.81%
10,COc1ccc(C(=O)Nc2ccc3nc(N4CCN(C)CC4)cc(C)c3c2)c(OC)c1,-0.388%
11,COc1ccc2c(c1)c(C(=O)CN1CCN(C(=O)c3ccco3)CC1)c(C)n2C,8.19%
12,Cc1ccc(C)c(NS(=O)(=O)c2cc(C(N)=O)ccc2C)c1,-4.37%
13,O=C(NC[C@@H]1CCCO1)c1cccc2c1C(=O)c1ccc(Cl)cc1S2(=O)=O,-16.2%
14,CCOc1cc(/C=N/NC(=O)Cc2ccc(C(F)(F)F)cc2[N+](=O)[O-])c(Br)cc1OC,8.3%
15,O=[N+]([O-])c1cc(/C=N/NC(=S)Nc2ccccc2Cl)ccc1Cl,35.6%
16,N#C/C(=C\c1ccc(/C=C(/C#N)c2nn(CCO)c(N)c2C#N)cc1)c1nn(CCO)c(N)c1C#N,11.7%
17,C/[N+]([O-])=C\CC(=O)c1ccc(-c2ccccc2)cc1,15%
18,O=[N+]([O-])c1ccn(-c2nc(-c3cccs3)cc(C(F)(F)F)n2)n1,2.54%
19,CN1C(=O)c2ccc(C(=O)NCc3ccco3)cc2C1=O,13.2%
20,O=C1CN(C(=O)c2cc(Br)c(Br)s2)c2ccccc2N1,13%
21,CC1CC(C)CN(C(=O)Cn2c(=O)oc3cc(S(=O)(=O)N4CCCC4)ccc32)C1 (stereo not shown),-3.39%
22,COc1ccc(NC(=O)COC(=O)CC23CC4CC(CC(C4)C2)C3)c([N+](=O)[O-])c1,15.7%

row,Structure (SMILES),"hERG current change (%, negative = inhibition) at 10uM"
1,Cc1onc(C(=O)NCc2ccc(F)cc2)c1[N+](=O)[O-],-1.77%
2,O=C(NCc1ccccc1)C1=C[C@@H](c2ccc(Br)cc2)C[C@@H](OCc2ccc(CO)cc2)O1,-9.5%
3,CCN1CCN(c2oc(/C=C/c3ccccc3)nc2C#N)CC1,-63.1%
4,Cc1ccc(-c2noc(Cn3cc(S(=O)(=O)N4CCCC4)ccc3=O)n2)cc1,8.62%
5,COC(=O)c1ccc(NC(=O)C2CC(=O)OC2c2ccccc2)cc1 (stereo not shown),5.94%
6,O=C(CCCOc1ccccc1)NC1CCCc2ccccc21 (stereo not shown),-13.1%
7,O=C(C1CCC1)N1CCCc2cc(S(=O)(=O)N3CCN(c4ccccc4)CC3)ccc21,-0.703%
8,CCCNC(=O)C1(CC2CC(c3ccccc3)=NO2)CCN(C(=O)C2CCCC2)CC1 (stereo not shown),-41.8%
9,Cc1ccccc1NC(=O)Cn1c(=O)n(C)c2ccccc21,-8.49%
10,CC(C)Cc1nnc(NC(=O)Cc2ccc([N+](=O)[O-])cc2)s1,0.955%
11,OCc1nc2ccccc2n1CC(O)COc1ccccc1 (stereo not shown),6.25%
12,COc1ccc(-c2nc(CS(=O)CC(=O)NC3CCCCCC3)c(C)o2)cc1 (stereo not shown),10.6%
13,O=C(Nc1ccc2c(c1)OCCO2)c1cccnc1Oc1ccc(Cl)cc1,7.21%
14,CN1CCCC(OC(=O)CCCCC(=O)OC2CCCN(C)C2)C1.Cl (stereo not shown),2.04%
15,Cc1ccc2c(c1)N(CC(=O)NCCCc1ccccc1)C(=O)c1cccnc1O2,-17.4%
16,O=[N+]([O-])c1ccc(N2CCN(c3ccc(F)cc3)CC2)nc1,-8.33%
17,COc1ccc(CC2(CO)CCN(Cc3cnn(-c4ccc(F)cc4)c3)CC2)cc1,-76.4%
18,O=C1CCCN1CC(O)CS(=O)(=O)c1ccccc1 (stereo not shown),26.1%
19,Cc1ccc(NC(=O)NC2(C(=O)NCc3ccccc3)CCCCC2)cc1,-3.97%
20,O=C1c2cccc3cccc(c23)C(=O)C1(O)O,-13.8%
21,CCC1(c2ccccc2)NC(=O)N(CC(=O)Nc2ccccc2C(=O)NC2CCCC2)C1=O (stereo not shown),-53.8%
